# Results taken from the supplement of paper PMC4604168 (melanoma cell lines).
# Some of the results follow. Many values rest on one well or one pass, so single values are uncertain.
# Tested on: A2058
# Assay: cell count relative to DMSO control; melanoma cells; higher = more viable cells
# Conditions: library dose: standard library concentration; 72 h
# 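Further: cells treated in 1,536-well plates, then fixed and DAPI-stained, with nuclei counted from automated high-throughput microscope images.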
row,Structure (SMILES),cell count
1,"CC(=O)O[C@@]12CO[C@@H]1C[C@H](O)[C@@]1(C)C(=O)[C@H](O)C3=C(C)[C@@H](OC(=O)[C@H](O)[C@@H](NC(=O)OC(C)(C)C)c4ccccc4)C[C@@](O)([C@@H](OC(=O)c4ccccc4)[C@H]21)C3(C)C [Docetaxel] + N.N.[Cl][Pt][Cl] [cisplatin] (first compound 0.0005 µM, partner dose 8 µM)",15.6%
2,"COc1cc([C@@H]2c3cc4c(cc3[C@@H](O[C@@H]3O[C@@H]5CO[C@@H](C)O[C@H]5[C@H](O)[C@H]3O)[C@H]3COC(=O)[C@H]23)OCO4)cc(OC)c1O [etoposide] + Cn1cc(C2=C(c3cn(C4CCN(Cc5ccccn5)CC4)c4ccccc34)C(=O)NC2=O)c2ccccc21 [Enzastaurin] (first compound 0.1 µM, partner dose 4 µM)",63.7%
3,"O=C(Nc1cc(C(F)(F)F)cc(C(F)(F)F)c1)c1cc(Cl)ccc1O + C[As](C)SC[C@H](NC(=O)CC[C@H](N)C(=O)O)C(=O)NCC(=O)O [Darinaparsin] (first compound 0.08 µM, partner dose 2 µM)",105%
4,"COc1cc([C@@H]2c3cc4c(cc3[C@@H](O[C@@H]3O[C@@H]5CO[C@@H](C)O[C@H]5[C@H](O)[C@H]3O)[C@H]3COC(=O)[C@H]23)OCO4)cc(OC)c1O [etoposide] + C[As](C)SC[C@H](NC(=O)CC[C@H](N)C(=O)O)C(=O)NCC(=O)O [Darinaparsin] (first compound 0.1 µM, partner dose 2 µM)",75.2%
5,"C[C@@H](N)c1ccc(C(=O)Nc2ccnc3[nH]ccc23)cc1 + C[C@]12O[C@H](C[C@]1(O)CO)n1c3ccccc3c3c4c(c5c6ccccc6n2c5c31)CNC4=O [Lestaurtinib] (first compound 2 µM, partner dose 0.02 µM)",67.5%
6,"Cc1cc(Nc2cc(N3CCN(C)CC3)nc(/C=C/c3ccccc3)n2)n[nH]1 + N.N.[Cl][Pt][Cl] [cisplatin] (first compound 0.2 µM, partner dose 8 µM)",100%
7,"CC1(C)CCC(c2ccc(Cl)cc2)=C(CN2CCN(c3ccc(C(=O)NS(=O)(=O)c4ccc(N[C@H](CCN5CCOCC5)CSc5ccccc5)c(S(=O)(=O)C(F)(F)F)c4)cc3)CC2)C1 + C[C@]12O[C@H](C[C@]1(O)CO)n1c3ccccc3c3c4c(c5c6ccccc6n2c5c31)CNC4=O [Lestaurtinib] (first compound 2 µM, partner dose 0.02 µM)",98%
8,"CCCCCCCCc1ccc(CCC(N)(CO)CO)cc1 [fingolimod] + N.N.[Cl][Pt][Cl] [cisplatin] (first compound 10 µM, partner dose 8 µM)",6.4%
9,"Cn1c(=O)n(-c2ccc(C(C)(C)C#N)cc2)c2c3cc(-c4cnc5ccccc5c4)ccc3ncc21 + N.N.[Cl][Pt][Cl] [cisplatin] (first compound 0.02 µM, partner dose 8 µM)",47.2%
10,"Cc1cn(-c2cc(NC(=O)c3ccc(C)c(Nc4nccc(-c5cccnc5)n4)c3)cc(C(F)(F)F)c2)cn1 [nilotinib] + N.N.[Cl][Pt][Cl] [cisplatin] (first compound 1 µM, partner dose 8 µM)",73.9%
11,"Cc1cc(SCc2sc(-c3ccc(C(F)(F)F)c(F)c3)nc2C)ccc1OCC(=O)O + COc1cc2ncnc(Nc3ccc(Oc4ccccc4)cc3)c2cc1OC [SrcI1] (first compound 10 µM, partner dose 10 µM)",112%
12,"NC(=O)c1ccc(N(C(N)=O)c2c(F)cccc2F)nc1-c1ccc(F)cc1F + N.N.[Cl][Pt][Cl] [cisplatin] (first compound 2 µM, partner dose 8 µM)",84.5%
13,"Cn1cnc2c(F)c(Nc3ccc(Br)cc3Cl)c(C(=O)NOCCO)cc21 [selumetinib] + C[C@]12O[C@H](C[C@]1(O)CO)n1c3ccccc3c3c4c(c5c6ccccc6n2c5c31)CNC4=O [Lestaurtinib] (first compound 0.075 µM, partner dose 0.02 µM)",97.6%
14,"C[C@@H](N)c1ccc(C(=O)Nc2ccnc3[nH]ccc23)cc1 + Cn1cc(C2=C(c3cn(C4CCN(Cc5ccccn5)CC4)c4ccccc34)C(=O)NC2=O)c2ccccc21 [Enzastaurin] (first compound 2 µM, partner dose 4 µM)",62.4%
